Experimental data taken from PubChem BioAssay (NCATS).
Inconclusive means that the source gave no clear call. Such entries were picked first, then a sample of the others. Entries that show only a call come without a potency. For part of these data: A potency beside an inconclusive call is a rough fit, not a confirmed value. Calls of active or inactive are those of the source. Unless noted, calls follow the shape of the dose curve; as a rule, active = well fitted curve in the direction sought with a large enough effect; inconclusive = small, poorly fitted or top-dose-only effect, or another doubt; inactive = no such curve, though single readings can be large; an effect the other way counts as inactive or inconclusive.

Key:
HEK293 = assay: Cytotoxic Profiling of Annotated Libraries Using Quantitative High-Throughput Screening (AID 1296008); conditions: Five cell lines viability, CellTiter-Glo ATP luminescence, 48-72 h; max response: stronger effect = lower value; also: nearly all actives have a fitted effect of over 60% in size; also: potency is read from the fitted curve at half-maximal effect
Summary of the method: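 Cells exposed to compounds for 48 or 72 hr at 37 degrees Celsius. Viability read as ATP-coupled luminescence with CellTiter-Glo after 10 min at room temperature.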

C33A = assay: Primary qHTS to identify gynecologic anti-cancer compounds using libraries of approved drugs and bioactive compounds (AID 1345084); conditions: Gynecologic cancer cell panel viability, ATPlite luminescence, 48 h; series mostly up to 57.5 µM; also: nearly all actives have a fitted effect of over 55% in size; also: potency is read from the fitted curve at half-maximal effect
Summary of the method: (§1)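 Cell viability after 48 h drug treatment, ATPlite luminescence readout; five doses.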

CAOV3 = assay: as above; conditions: Gynecologic cancer cell panel viability, ATPlite luminescence, 48 h; activity change, negative = cytotoxicity: at 57.5 µM (top of the series)
Summary of the method: as §1

Hek293T = assay: as above; conditions: Gynecologic cancer cell panel viability, ATPlite luminescence, 48 h, control line for the selectivity index; activity change, negative = cytotoxicity: at 57.5 µM (top of the series) unless noted
Summary of the method: as §1

[1] = system: Zika virus NS2B-NS3 protease (unlinked complex); assay: Primary screen GU Rhodamine qHTS for Zika virus inhibitors: Unlinked NS2B-NS3 protease assay (AID 1347159); also: nearly all actives have a fitted effect of over 60% in size; also: potency is read from the fitted curve at half-maximal effect
Summary of the method: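 In dose–response format, inhibition of unlinked protease (25 nM) was measured with 1.5 microM bis-peptide Rhodamine110 substrate. Aprotinin served as the intraplate control.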

CASKI = assay: Primary qHTS to identify gynecologic anti-cancer compounds using libraries of approved drugs and bioactive compounds (AID 1345084); conditions: Gynecologic cancer cell panel viability, ATPlite luminescence, 48 h; series mostly up to 57.5 µM; also: nearly all actives have a fitted effect of over 55% in size; also: potency is read from the fitted curve at half-maximal effect
Summary of the method: as §1

SKOV3 = assay: as above; conditions: Gynecologic cancer cell panel viability, ATPlite luminescence, 48 h; series mostly up to 57.5 µM
Summary of the method: as §1

[2] = Primary qHTS for inhibitors of nuclear receptor binding SET domain protein 2 (NSD2) in an isogenic RCH-ACV NSD2 p.E1099K mutant (9B) (AID 1645876); also: nearly all actives have a fitted effect of over 70% in size; also: potency is read from the fitted curve at half-maximal effect
[3] = Primary qHTS for inhibitors of nuclear receptor binding SET domain protein 2 (NSD2) in an RCH-ACV wild type WT cells (2C) (AID 1645877); conditions: activity change, negative = cell killing: at 44.9 µM (top of the series) unless noted; also: potency is read from the fitted curve at half-maximal effect; nearly all actives have a fitted effect of over 70% in size
PA-1 = assay: Primary qHTS to identify gynecologic anti-cancer compounds using libraries of approved drugs and bioactive compounds (AID 1345084); conditions: Gynecologic cancer cell panel viability, ATPlite luminescence, 48 h; series mostly up to 57.5 µM; also: nearly all actives have a fitted effect of over 55% in size; also: potency is read from the fitted curve at half-maximal effect
Summary of the method: as §1

[4] = P-glycoprotein substrates identified in KB-8-5-11 adenocarcinoma cell line, qHTS therapeutic library screen (AID 1346987); also: nearly all actives have a fitted effect of over 65% in size; also: potency is read from the fitted curve at half-maximal effect
Summary of the method: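 In this qHTS, P-gp-rich KB-8-5-11 cells received library compounds across a concentration range. Viability was quantified by luminescence after 72 h at 37 degree C.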

[5] = Primary fluorescence-based thiol-reactive (MSTI) qHTS assay for identification of artifact compounds. (AID 1845221); also: potency is read from the fitted curve at half-maximal effect;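 also: thiol-reactive compounds lower the probe fluorescence signal; nearly all actives have a fitted effect of over 65% in size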
Summary of the method: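 Probe: MSTI 4 uM, PBS pH 7.4, 2% DMSO. Incubation 1 h, RT, light-protected. Readout fluorescence 525/598 nm.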

[6] = Primary qHTS for small molecule stabilizers of the endoplasmic reticulum resident proteome: Secreted ER Calcium Modulated Protein (SERCaMP) assay (AID 1508630); conditions: SH-SY5Y GLuc-SERCaMP (Gaussia luciferase released on ER calcium loss) secretion, thapsigargin, luminescence; activity change, negative = inhibition: at 38.4 µM (top of the series) unless noted; also: potency is read from the fitted curve at half-maximal effect
Summary of the method: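 The SH-SY5Y reporter protocol was run at 3 concentrations up to 38.3 uM (primary) or 11 concentrations (follow-up): 16 h compound, 100 nM thapsigargin for 4 h, then extracellular luciferase luminescence.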

[7] = biological target: Cytochrome P450 2D6 (Homo sapiens) (UniProt P10635); assay: Cytochrome P450 family 2 subfamily D member 6 (CYP2D6) small molecule antagonists: luciferase biochemical (cell-free) qHTS assay (AID 1645840; active = well fitted curve in the direction sought with a large enough effect in the repeat runs; inconclusive = weak or mixed curves; inactive = no such curve, though single readings can be large; an effect the other way counts as inactive or inconclusive; also: nearly all actives have a fitted effect of over 55% in size)
Summary of the method: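 P450-Glo CYP2D6 system: proluciferin substrate converted by enzyme to luciferin, read by luminescence proportional to activity. Enzyme-substrate mix with compound 10 min at room temperature, then NADPH regeneration 1 h before detection reagent.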

Tov112D = assay: Primary qHTS to identify gynecologic anti-cancer compounds using libraries of approved drugs and bioactive compounds (AID 1345084); conditions: Gynecologic cancer cell panel viability, ATPlite luminescence, 48 h; series mostly up to 57.5 µM; also: nearly all actives have a fitted effect of over 55% in size; also: potency is read from the fitted curve at half-maximal effect
Summary of the method: as §1

OV90 = assay: as above; conditions: Gynecologic cancer cell panel viability, ATPlite luminescence, 48 h; series mostly up to 57.5 µM
Summary of the method: as §1
Tags tell the direction and shape of the fitted curve.

UniProt P10635, sequence (P10635 whole entry, looked up): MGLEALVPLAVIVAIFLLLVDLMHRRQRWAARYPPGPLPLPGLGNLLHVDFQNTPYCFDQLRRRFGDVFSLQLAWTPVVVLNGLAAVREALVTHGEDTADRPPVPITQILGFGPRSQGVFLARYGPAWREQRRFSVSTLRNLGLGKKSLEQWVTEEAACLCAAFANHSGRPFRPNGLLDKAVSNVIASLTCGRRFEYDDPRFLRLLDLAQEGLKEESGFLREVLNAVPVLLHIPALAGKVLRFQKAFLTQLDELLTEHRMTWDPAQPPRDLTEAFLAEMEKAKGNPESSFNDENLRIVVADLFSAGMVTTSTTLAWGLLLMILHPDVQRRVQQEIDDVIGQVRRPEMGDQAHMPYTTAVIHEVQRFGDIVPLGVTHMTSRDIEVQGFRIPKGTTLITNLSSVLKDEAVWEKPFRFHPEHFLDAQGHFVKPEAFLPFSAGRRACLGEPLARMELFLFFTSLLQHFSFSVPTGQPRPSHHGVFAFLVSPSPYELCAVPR

In the case of `NS(=O)(=O)c1ccc(N2CCN(CC[C@@H]3OCCc4ccccc43)CC2)cc1`, the Potency (HEK293) is reported as inconclusive: 29.1 µM [inhibitor, single point], the Potency (C33A) is reported as “inactive” and the Potency (CAOV3) is reported as “inactive”. The Potency (Hek293T) was “inactive”.

With `COC(=O)C(Cc1ccc(OCCn2c(=O)sc3cc(C(=O)c4ccccc4)ccc32)cc1)C(=O)OC` the Potency [1] was “inactive”, the Potency (HEK293) was inconclusive: 29.1 µM [inhibitor, single point] and the Potency (C33A) was “inactive”. The Potency (CASKI) was “inactive” and the Potency (SKOV3) was “inactive”.

In the case of `Nc1nonc1C(=Nc1ccc(F)c(Cl)c1)NO`, the Potency [2] is reported as inconclusive: 25.8 µM [inhibitor, partial curve, poor fit], the Potency [3] is reported as inconclusive: 18.3 µM [inhibitor, partial curve, poor fit] and the outcome (HEK293) is reported as “inactive”. The Potency (C33A) was “inactive” and the Potency (PA-1) was “inactive”.

With `COc1cc(N(C)CCN(C)C)c(N)cc1Nc1nccc(-c2cn(C)c3ccccc23)n1` the Potency [4] was inconclusive: 23.1 µM [inhibitor, single point], the Potency [2] was inconclusive: 16.3 µM [inhibitor, single point] and the Potency [3] was inconclusive: 20.5 µM [inhibitor, single point]. The Potency [5] was inconclusive: 0.844 µM [inhibitor, full curve], the Potency (HEK293) was inconclusive: 25.9 µM [inhibitor, single point] and the Potency (C33A) was “inactive”.

For `CC1(C)CC[C@]2(C(=O)O)CC[C@]3(C)C(=CCC4[C@@]5(C)CCC(O[C@@H]6OC[C@H](O)[C@H](O)[C@H]6O[C@@H]6O[C@H](CO)[C@@H](O)[C@H](O)[C@H]6O)[C@@](C)(CO)C5CC[C@]43C)[C@@H]2C1` (stereo partly specified), the Potency [1] was inconclusive: 14.1 µM [inhibitor, partial curve, poor fit], the Potency [2] was “inactive” and the Potency [5] was “inactive”. For the same compound, the outcome (HEK293) was “inactive”, the Potency (C33A) was “inactive” and the Potency (PA-1) was inconclusive: 14.1 µM [rising, partial curve, poor fit]. For the same compound, the Potency (SKOV3) was “inactive”.

For `CC(C)C(C)(C)C(C)(C)C(C)(C)S`, the Potency [6] was inconclusive: 25.1 µM [inhibitor, partial curve, poor fit], the Potency [7] was “inactive” and the max response (HEK293) was inactive: -4.55%. For the same compound, the Potency (CAOV3) was “inactive”, the Potency (CASKI) was “inactive” and the Potency (PA-1) was inconclusive: 31.6 µM [rising, partial curve, poor fit]. For the same compound, the Potency (SKOV3) was inconclusive: 0.891 µM [rising, partial curve, poor fit] and the Potency (Tov112D) was “inactive”.

For `Cc1csc(N(C(=O)CSc2ccc(-c3ccccc3)nn2)C2CC2)n1`, the Potency [4] was “inactive”, the Potency (HEK293) was inconclusive: 29.1 µM [inhibitor, single point] and the Potency (CAOV3) was “inactive”. For the same compound, the Potency (CASKI) was “inactive”, the Potency (OV90) was inconclusive: 31.6 µM [cytotoxic, single point] and the Potency (SKOV3) was inconclusive: 35.5 µM [rising, single point].

In the case of `CCOC(=O)c1ccc(N)cc1`, the Potency [7] is reported as “inactive”, the Potency [2] is reported as inconclusive: 33.5 µM [inhibitor, single point] and the Potency [3] is reported as inconclusive: 33.5 µM [inhibitor, single point]. The max response (HEK293) was inactive: -24%, the Potency (C33A) was “inactive” and the Potency (OV90) was “inactive”.

In the case of `C=C1C2(C)CC3C4(C)C=CC(=O)OC(C)(C)C4CCC3(C)C1(C(=O)OC)C(=O)C(C)(O)C2=O` (stereo unspecified), the Potency [1] is reported as “inactive”, the Potency [2] is reported as “inactive” and the max response (HEK293) is reported as inactive: -101%. The Potency (C33A) was “inactive” and the Potency (SKOV3) was inconclusive: 0.0708 µM [cytotoxic, full curve, poor fit].

For `O=C(c1cc(Cc2n[nH]c(=O)c3ccccc23)ccc1F)N1CCCNCC1`, the Potency [2] was inconclusive: 16.3 µM [inhibitor, partial curve, poor fit], the Potency [3] was inconclusive: 6.49 µM [inhibitor, partial curve] and the Potency (HEK293) was inconclusive: 20.6 µM [inhibitor, partial curve]. For the same compound, the Potency (C33A) was “inactive”.

For `CC1CCC2(CO)C(C(=O)O)=CCCC2C1(C)CCc1ccoc1` (stereo unspecified), the Potency [4] was “inactive”, the Potency [1] was inconclusive: 39.8 µM [inhibitor, partial curve] and the max response (HEK293) was inactive: -3.01%. The Potency (C33A) was “inactive”.

With `COC1C(OC(=O)/C=C/C=C/C=C/C=C/C(=O)O)CCC2(CO2)C1C1(C)OC1CC=C(C)C` (stereo unspecified) the Potency [4] was inconclusive: 0.502 µM [inhibitor, partial curve, poor fit], the Potency [2] was “inactive” and the Potency [3] was inconclusive: 0.0159 µM [inhibitor, full curve]. The Potency [5] was inconclusive: 18.4 µM [inhibitor, single point], the Potency (HEK293) was inconclusive: 0.159 µM [inhibitor, full curve] and the Potency (C33A) was “inactive”.
